According to article PMC6367348:
Results are given in words; binding and its absence hold for the method and conditions named. In cells and extracts the contact can be indirect. Some binding calls cover weakened binding; strength is not graded here. Where a sequence is shown, tags or fusion partners need not be part of it.

Protein sequences, listed by entry. Tags and fused reporters are not part of them.
UniProt Q13131: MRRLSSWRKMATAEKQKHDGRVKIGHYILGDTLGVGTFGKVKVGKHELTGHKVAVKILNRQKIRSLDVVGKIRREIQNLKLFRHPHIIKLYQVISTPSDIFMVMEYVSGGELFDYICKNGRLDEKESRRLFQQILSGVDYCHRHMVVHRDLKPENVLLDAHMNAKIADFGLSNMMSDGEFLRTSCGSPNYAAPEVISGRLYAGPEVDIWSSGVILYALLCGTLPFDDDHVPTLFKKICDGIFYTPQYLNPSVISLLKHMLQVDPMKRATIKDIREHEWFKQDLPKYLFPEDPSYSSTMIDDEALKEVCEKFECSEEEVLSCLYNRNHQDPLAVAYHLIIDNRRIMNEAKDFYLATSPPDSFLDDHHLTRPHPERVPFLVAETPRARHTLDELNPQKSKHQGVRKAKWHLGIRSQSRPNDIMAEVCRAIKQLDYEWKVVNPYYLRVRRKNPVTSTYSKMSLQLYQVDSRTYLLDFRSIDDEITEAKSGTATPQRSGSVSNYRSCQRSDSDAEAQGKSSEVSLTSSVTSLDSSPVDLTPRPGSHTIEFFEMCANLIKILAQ
UniProt Q9UKV5: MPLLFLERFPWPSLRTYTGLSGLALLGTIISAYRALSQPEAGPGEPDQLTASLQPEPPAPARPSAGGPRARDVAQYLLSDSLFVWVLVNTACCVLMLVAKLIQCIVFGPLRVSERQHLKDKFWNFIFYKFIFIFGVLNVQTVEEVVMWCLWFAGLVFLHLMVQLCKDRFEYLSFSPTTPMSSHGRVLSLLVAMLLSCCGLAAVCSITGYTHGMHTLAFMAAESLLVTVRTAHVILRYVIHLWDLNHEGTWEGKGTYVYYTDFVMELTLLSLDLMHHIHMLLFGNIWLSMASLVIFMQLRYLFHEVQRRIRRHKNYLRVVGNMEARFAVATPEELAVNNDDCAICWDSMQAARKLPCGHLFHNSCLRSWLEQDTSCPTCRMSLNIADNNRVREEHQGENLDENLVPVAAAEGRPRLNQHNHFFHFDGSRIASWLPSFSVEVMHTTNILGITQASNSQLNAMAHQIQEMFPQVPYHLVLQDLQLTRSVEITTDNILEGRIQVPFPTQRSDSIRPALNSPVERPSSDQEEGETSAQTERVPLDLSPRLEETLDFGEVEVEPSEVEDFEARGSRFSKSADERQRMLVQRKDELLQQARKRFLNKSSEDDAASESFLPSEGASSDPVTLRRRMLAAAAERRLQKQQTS

Assays:
[1] = target: T1, FLAG-tagged Insig-1 (human) (UniProt O15503); assay: condition: only cells treated with 100 μM A769662 for 8 h; co-IP; As a1, but cells treated with 100 μM A769662 (AMPK agonist) for 8 h before lysis; FLAG antibodies and protein A/G-Sepharose beads; immunoblot
T1 sequence: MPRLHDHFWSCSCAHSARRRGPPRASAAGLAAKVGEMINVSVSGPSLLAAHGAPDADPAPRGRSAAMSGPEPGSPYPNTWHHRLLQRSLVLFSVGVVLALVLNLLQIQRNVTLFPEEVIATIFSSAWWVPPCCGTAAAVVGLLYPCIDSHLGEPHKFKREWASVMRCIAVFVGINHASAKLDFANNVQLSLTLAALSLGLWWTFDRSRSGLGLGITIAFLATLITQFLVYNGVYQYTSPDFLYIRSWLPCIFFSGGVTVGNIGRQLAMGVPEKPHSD

[2] = target: T2, FLAG-tagged human Insig-2 (human) (UniProt Q9Y5U4); assay: as above
T2 sequence: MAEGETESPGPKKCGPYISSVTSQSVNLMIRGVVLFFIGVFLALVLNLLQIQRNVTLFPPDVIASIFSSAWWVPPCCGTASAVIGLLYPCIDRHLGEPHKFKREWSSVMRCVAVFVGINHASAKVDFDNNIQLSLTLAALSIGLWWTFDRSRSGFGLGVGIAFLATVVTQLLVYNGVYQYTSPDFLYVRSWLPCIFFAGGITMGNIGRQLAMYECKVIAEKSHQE

[3] = target: T1, FLAG-tagged Insig-1 (human); assay: co-IP; HEK293 cells co-transfected for 24 h, no A769662; lysate (50 mM Tris-HCl pH 8.0, 1% Nonidet P-40, 150 mM NaCl) incubated with FLAG antibodies and protein A/G-Sepharose beads at 4 °C overnight; immunoblot
[4] = target: T2, FLAG-tagged human Insig-2 (human); assay: as above
[5] = target: GST-tagged AMPKα1 (UniProt Q13131); assay: pull-down; HEK293 cells co-transfected with myc-Insig-1 and increasing GST-AMPKα1 (48 h), or for 24 h followed with or without 100 μM A769662 for 8 h; lysates incubated with Glutathione Sepharose beads at 4 °C overnight; immunoblot with myc or GST antibodies

Question: Which results are given for “myc-tagged gp78 (from UniProt Q9UKV5 1-643) (enzyme)”?
Answer: binding [1]: no binding; binding [2]: no binding; binding [3]: binds; binding [4]: binds

B1: myc-tagged Insig-1 (protein, UniProt O15503 1-277)
chain: T1 sequence
Question: B1 was tested. Which binding [5] did it give?
Answer: Its binding is “binds”.
